In the supplement of paper PMC11417369:
± gives the standard deviation of the averaged measurements. The list shows a part of the results.

test system: PfAP2-I AP2 domain 3 (GST-tagged); test: gcPBM binding intensity (ln(normalized median fluorescence intensity)); higher = stronger DNA binding
How it was run: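 Binding intensity is defined as the maximum Masliner-normalised natural-log median intensity across replicate spots for either probe orientation. It was measured on an Agilent 4 × 180k array of primer-extended double-stranded 36-bp intergenic genomic probes and negative controls, to which GST-tagged P. falciparum DNA-binding domains made in E. coli were applied for 1 h in 1× PBS with 1% milk, 0.2 mg/ml BSA, 0.5% salmon testes DNA and 0.03% Triton X-100. Detection was by Alexa488 anti-GST antibody and scanning at 488 nm.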

Sequence | gcPBM binding intensity (ln)
GTATATATTTCCAGAAGTACTTATTTTTATGTATGT [XGTACX_site4079] | 7.99 ± 0.42
AATCTATATTAATACACACACACATATATTTATATA [CACACA_site7732] | 8.13 ± 0.33
TTTATTTTGACAGATTGTACACTTTATACATGTTTT [XGTACX_site2356] | 7.89 ± 0.55
TGAAAAAAGAAAAATACACACATATAACATAATATA [CACACA_site7126] | 7.57 ± 0.57
AAAAATGCCAGAAAACGTACTCGGATTTTCTAATAT [XGTACX_site6552] | 7.41 ± 0.62
TGATTACATATGATGTGTACCTAATTTTGTTTACAC [XGTACX_site7032] | 7.69 ± 0.51
AAAACACGCGGACACACACACACACCCACCCATATA [CACACA_site8688] | 8.03 ± 0.47
TTTTAATATTTTGCCTGTACATAAAAGTGAGAAGAT [XGTACX_site2503] | 8.39 ± 0.4
TTATATTTATTGATATGTACATATTATAATTAATTA [XGTACX_site586] | 7.75 ± 0.32
AAATAGTTCATAAAAAGTACAAAATTTTTATCCGTA [XGTACX_site2796] | 7.61 ± 0.49
ATCATTCATTTAACAACACACAACATATTTATCATA [CACACA_site1041] | 8.02 ± 0.53
TATAAAGGTTGGTACTGTACAATATAAGAAAAAAAA [XGTACX_site435] | 8.01 ± 0.57
TATATATTATATAAGAGTACATATAATTATAGTTTT [XGTACX_site5039] | 7.71 ± 0.52
GTGTGGAGTTACAAAGAGGAGAACCTCACAGTAATC [CACACA_negctrl_site527] | 8.03 ± 0.12
AAATTCGTTATAAAAACATGCAACGATCAACATTGT [TGCATGCA_site844] | 7.59 ± 0.57
TTACTCTTTATATAATGTACATATATATATATATTA [XGTACX_site2624] | 8 ± 0.48
TTTTTTATATTGTGATGTACAAATTTTAAAATGTAG [XGTACX_site1875] | 8.01 ± 0.17
ATATATATATATATAATACACACTTATGAAATGTCT [CACACA_site1827] | 9.4 ± 0.28
TTATGTGATAAAAAAAAAATACAACAAAGTTAAATA [GTGCAC_negctrl_site36] | 7.46 ± 0.64
TTACACATATTTTTAATTATTCTGAATTCAAAAAAA [CACACA_negctrl_site1706] | 7.62 ± 0.43
GTAATATTAAAATATACACACATAGAATATATATAT [CACACA_site4391] | 8.96 ± 0.042
ATAATCATAAAATAAACACACATATATAAATATATT [CACACA_site276] | 7.57 ± 0.36

Sequence | gcPBM binding intensity (ln)
AAAAAAATATAAATACGTACATATATATATATATAT [XGTACX_site432] | 9.39 ± 0.28
CTATTCTATTTTTATTGTACATATATATAATTTGAA [XGTACX_site389] | 8.04 ± 0.41
ATATAATGGCTAAATAGTACAATATAATATTTTTTA [XGTACX_site8922] | 7.55 ± 0.48
ACACATGAATATTGTAGTACGGCAATTAATATAATA [XGTACX_site4589] | 7.74 ± 0.43
TGGAATAATACGCGTACACACATATAAATATTAATA [CACACA_site6211] | 8.16 ± 0.13
AGAAAGGAAAAAACCTCACACATGCTTTTAATAGTA [CACACA_site4602] | 7.49 ± 0.7
AAAAATTCATTTTTATGTACGTACAAATTCTTCGTT [XGTACX_site2471] | 8.17 ± 0.28
AGTAAATTATATATCTGTACATATATATATGTGTAT [XGTACX_site5519] | 7.84 ± 0.58
TTTTAAAAAAATATAATACACACCAAAAATATGCAC [CACACA_site2131] | 9.62 ± 0.014
ACTATATATATAAGTGCATGTTCATTATACCTAAAG [TGCATGCA_site696] | 8.93 ± 0.57
CTCACAAATGAATACACACAAACATATATATTTATA [CACACA_site1620] | 7.71 ± 0.32
TATTGAAAGTGAATTATAACATTAAAAATATATATA [TGCATGCA_negctrl_site566] | 7.55 ± 0.59
CAATATAAAAGACACACACACAAACATATATTTATA [CACACA_site7697] | 7.74 ± 0.47
TGAATATGTAAATGCACACCAAAAAAAAAAAAAAAA [CACACA_site3566] | 9.86 ± 0.52
GAAGGAAATAAATCAACACACATATATTATAGATAT [CACACA_site7095] | 7.54 ± 0.61
ATAATGTAAAATAAATGTACGCAATATATAAAAAAT [XGTACX_site5747] | 8.21 ± 0.39
AAAAAATTTTAATATGCATGTAATTTTGCTTTTTCA [TGCATGCA_site1044] | 7.92 ± 0.35
TAATATAGGGGTGTTCAAATAAATTTTGTTATTTTT [CACACA_negctrl_site1203] | 7.96 ± 0.54
AGCACGCACAGACACACACACATATTTATATTTATA [CACACA_site6291] | 8.22 ± 0.27
ACCTATTTCAAACACACACACACACCCACAAACATA [CACACA_site977] | 8.46 ± 0.4
ACGAATATAGGATGTTTGCACTGTACCAATAAATGA [GTGCAC_site9808] | 9.03 ± 0.35
TTCTTAATACAAATATGTACATATATATATATATAT [XGTACX_site757] | 9.21 ± 0.49

Sequence | gcPBM binding intensity (ln)
AATAGAAAAAAAAAATGTACAAAATGTTTATAAAAA [XGTACX_site4635] | 7.66 ± 0.77
TCATTTTAAGGAAAAAGTACAAAATAATATGTTCCT [XGTACX_site1903] | 7.54 ± 0.57
GATGTGTAAATAAGGATATATAACAATCAACAAAAC [XGTACX_negctrl_site494] | 8.07 ± 0.47
AAATGAATATAAAATATACACACTTATATATTGAAT [CACACA_site202] | 7.41 ± 0.4
AAATTACCCTTGTGTACACATATATTATCTGTATTA [CACACA_site4514] | 8.42 ± 0.51
AATATTCAATATAAAGTGCATTATTGTGCCCCTAAT | 11.3 ± 0.64
GTTATACATTTGAAAAGTACTCATGATTTTTTTTTT [XGTACX_site8177] | 7.75 ± 0.54
ATAAAAATCAAAAAAAATACATAATAGTAATAATAA [GTGCAC_negctrl_site481] | 7.71 ± 0.66
TTTTTATTGTTATACTTATATTATTTTATGATTAAA [XGTACX_negctrl_site262] | 7.83 ± 0.47
AAATAGAAAAAATATACACACACTTATTAAATAAAA [CACACA_site3313] | 7.76 ± 0.53
AAATAATAAAGTATAACACACATATTTATTTATATA [CACACA_site7822] | 7.47 ± 0.46
AAAATTAAAAAAATATGTACTTATGGGTAACATCAT [XGTACX_site5548] | 7.62 ± 0.43
CTGATATATTATTTATCTGAATATATTAATATGTAT [GTGCAC_negctrl_site82] | 7.33 ± 0.52
ATAAAATTATTATATACATGCAAAATTAATATATTG [TGCATGCA_site507] | 7.66 ± 0.64
TATCTTCATATATGGTGTACAGATTTTTTTTTTTTT [XGTACX_site5545] | 7.92 ± 0.23
TTTCTTTTTTTGGGCACACAAAATTTTCTCATTTTA [CACACA_site68] | 8.22 ± 0.59
ATTATATAATAATGCATGCACCTTATTTTCATTTCA [GTGCAC_site9922] | 9.13 ± 0.45
AAAATAAAAAAAATGAATTAGTTAAATGAAAAATAA [CACACA_negctrl_site1294] | 7.34 ± 0.52
TGAATAAATAAACACACACACATATATATATCTGTA [CACACA_site4184] | 7.59 ± 0.4
AAGGATAATATATTAGAACACACATATATATGTAAA [CACACA_site7942] | 7.69 ± 0.62
TTTATATAAAATTATTGTACAGTTTTAATATTTTAA [XGTACX_site6807] | 7.57 ± 0.43
TACATACACAAATACACACACAAATACATACACAAA [CACACA_site704] | 7.92 ± 0.18

Sequence | gcPBM binding intensity (ln)
TAAACAAATAAATATTGTACATTTTTTCCTTTTAAT [XGTACX_site5594] | 7.38 ± 0.39
CACAGACACGGACACACACACATATATAATATATAT [CACACA_site4495] | 8.13 ± 0.28
AAGATATGAACATTTTGTACTTAAAAATTCAATATT [XGTACX_site7103] | 7.46 ± 0.47
ATATATTTATTTATATGTACATATTATATATTATAG [XGTACX_site3371] | 7.75 ± 0.29
GATTATACAAAATATACACACGTGTACAGAAATATT [CACACA_site8305] | 7.99 ± 0.45
TTATATTAATTTTGTTGTACTATTTGTGCATTAAAT [XGTACX_site4790] | 11.1 ± 0.78
AATATATAAATGTTGTGTACTAAGCAATATATTTTA [XGTACX_site2483] | 7.84 ± 0.44
ATTCGTCACATTTTTTGATATATATATATATATATA [CACACA_negctrl_site1785] | 9.37 ± 0.33
TAAAAAATATAAACTGCACACACACTAATAAAGAAA [CACACA_site8119] | 8.75 ± 0.13
GCTTATTAATATCATACACACATAGATATATTTATA [CACACA_site3104] | 8.03 ± 0.45
CTATTATCGGTTCCTACACACAAATATATATGTCTA [CACACA_site3579] | 8.1 ± 0.57
ATATAGTTGTCATATTGTACACTTTAGGGTTGGTTA [XGTACX_site7339] | 7.92 ± 0.25
TACAATCCATATTGTTGTACATTTATAAAATTTACA [XGTACX_site3053] | 7.51 ± 0.26
CAATGGTACATACATACACACACACTAATAAAAAAA [CACACA_site8450] | 7.91 ± 0.61
GTATATATATAAGAAGAAATATATAAATAAAATATA [CACACA_negctrl_site503] | 7.47 ± 0.61
TATTATGTTTATTAAACATGCATATATTTATTTATA [TGCATGCA_site187] | 7.51 ± 0.47
ATATTTTATCATGTTTAATATTTATGTGGACATAAA [GTGCAC_negctrl_site275] | 7.84 ± 0.28
AGTTGGATACGAAGATGTACAATAATAATAATTAAG [XGTACX_site3561] | 7.99 ± 0.61
ACATTTTATATATGTAGTACATATTATAGATAATTT [XGTACX_site1976] | 7.75 ± 0.45
TATTTTATTTTTTTATGTACACAAAAAAAAAAAAAA [XGTACX_site945] | 8.24 ± 0.38
TCACTATAATAATTTACACACATTTTAAGAAAATGG [CACACA_site5867] | 7.67 ± 0.38
ATCAAAAACATACCTACACACACAATATGTATATAT [CACACA_site9171] | 7.83 ± 0.53
